Reference: the supplement of paper PMC4996465
Viability of KB3-1 and Nalm-6 cells after 48 h of drug alone (CellTiter-Glo), 11 doses over about 4.5 log units. % of DMSO wells, lower = more cell loss; AC50 from the fitted curve, lower = more potent. No active / inactive call. Nalm-6 was screened in two runs. AC50 is listed only for well-fitted inhibitory curves. KB3-1 is a HeLa-derived carcinoma line, Nalm-6 a B-cell precursor leukaemia line.

How the values were obtained:
[1] = tested on: Nalm-6; assay: log AC50 of viability decrease (48 h) (log10 M); higher = less potent
Protocol: (§1)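 Eleven-dose screen of the NCATS MIPE 3 library on cells without co-treatment; CellTiter-Glo after 48 h. AC50 from the curve fit; only inhibitory curves of the better fit classes are listed.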

[2] = tested on: KB3-1; assay: as above
Protocol: as §1

[3] = tested on: Nalm-6; assay: viability (% of DMSO control); higher = more viable cells
Protocol: (§2)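 Eleven-dose screen of the NCATS MIPE 3 library on cells without co-treatment; CellTiter-Glo after 48 h, as % of DMSO wells.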

[4] = tested on: KB3-1; assay: as above
Protocol: as §2

CO[C@@H](C(=O)N1Cc2[nH]nc(NC(=O)c3ccc(N4CCN(C)CC4)cc3)c2C1)c1ccccc1 [Danusertib]
Conditions	log AC50 of viability decrease	viability [%]
[1], run: 1	-6.83	–
[1], run: 2	-6.48	–
[3], run: 1, 0.00078 µM	–	83.7
[3], run: 1, 0.00234 µM	–	82.6
[3], run: 1, 0.00702 µM	–	58.5
[3], run: 1, 0.0211 µM	–	45
[3], run: 1, 0.0632 µM	–	45.4
[3], run: 1, 0.19 µM	–	45.9
[3], run: 1, 0.569 µM	–	41.2
[3], run: 1, 1.71 µM	–	40.5
[3], run: 1, 5.12 µM	–	29.7
[3], run: 1, 15.4 µM	–	23.7
[3], run: 1, 46.1 µM	–	3.48
[3], run: 2, 0.00078 µM	–	105
[3], run: 2, 0.00234 µM	–	92.4
[3], run: 2, 0.00702 µM	–	79.9
[3], run: 2, 0.0211 µM	–	73.3
[3], run: 2, 0.0632 µM	–	59.3
[3], run: 2, 0.19 µM	–	54.6
[3], run: 2, 0.569 µM	–	40.7
[3], run: 2, 1.71 µM	–	39.6
[3], run: 2, 5.12 µM	–	30.1
[3], run: 2, 15.4 µM	–	16.8
[3], run: 2, 46.1 µM	–	2.79
[4], 0.00078 µM	–	97.1
[4], 0.00234 µM	–	97.8
[4], 0.00702 µM	–	99.2
[4], 0.0211 µM	–	96.6
[4], 0.0632 µM	–	92.7
[4], 0.19 µM	–	97.6
[4], 0.569 µM	–	94.1
[4], 1.71 µM	–	83.1
[4], 5.12 µM	–	84
[4], 15.4 µM	–	81.8
[4], 46.1 µM	–	14

Conditions	log AC50 of viability decrease
[2]	-4.63

Cc1nc(Nc2ncc(C(=O)Nc3c(C)cccc3Cl)s2)cc(N2CCN(CCO)CC2)n1 [Dasatinib]
Conditions	log AC50 of viability decrease	viability [%]
[1], run: 1	-5.83	–
[1], run: 2	-5.23	–
[3], run: 1, 0.00078 µM	–	117
[3], run: 1, 0.00234 µM	–	129
[3], run: 1, 0.00702 µM	–	119
[3], run: 1, 0.0211 µM	–	103
[3], run: 1, 0.0632 µM	–	98
[3], run: 1, 0.19 µM	–	86.8
[3], run: 1, 0.569 µM	–	67.4
[3], run: 1, 1.71 µM	–	62.7
[3], run: 1, 5.12 µM	–	50
[3], run: 1, 15.4 µM	–	40.6
[3], run: 1, 46.1 µM	–	12.3
[3], run: 2, 0.00078 µM	–	106
[3], run: 2, 0.00234 µM	–	107
[3], run: 2, 0.00702 µM	–	105
[3], run: 2, 0.0211 µM	–	95.2
[3], run: 2, 0.0632 µM	–	87.5
[3], run: 2, 0.19 µM	–	81.1
[3], run: 2, 0.569 µM	–	68.6
[3], run: 2, 1.71 µM	–	61.2
[3], run: 2, 5.12 µM	–	56.9
[3], run: 2, 15.4 µM	–	52
[3], run: 2, 46.1 µM	–	6.35
[4], 0.00078 µM	–	103
[4], 0.00234 µM	–	104
[4], 0.00702 µM	–	106
[4], 0.0211 µM	–	104
[4], 0.0632 µM	–	107
[4], 0.19 µM	–	107
[4], 0.569 µM	–	106
[4], 1.71 µM	–	103
[4], 5.12 µM	–	99.1
[4], 15.4 µM	–	93.2
[4], 46.1 µM	–	55.6

Conditions	log AC50 of viability decrease
[2]	-4.68

C[C@@H]1C[C@H]2[C@@H]3\C=C(C)/C4=C/C5=C(C[C@]4(C)[C@H]3[C@@H](O)C[C@]2(C)[C@@]1(O)C(=O)CO)C=N[N]5C6=CC=CC=C6 [Deacetyl cortivazol]
Conditions	log AC50 of viability decrease	viability [%]
[1], run: 1	-5.53	–
[1], run: 2	-5.78	–
[3], run: 1, 0.00078 µM	–	52.1
[3], run: 1, 0.00234 µM	–	42.4
[3], run: 1, 0.00702 µM	–	40.3
[3], run: 1, 0.0211 µM	–	42.4
[3], run: 1, 0.0632 µM	–	41.5
[3], run: 1, 0.19 µM	–	43.2
[3], run: 1, 0.569 µM	–	36.4
[3], run: 1, 1.71 µM	–	35.6
[3], run: 1, 5.12 µM	–	8.15
[3], run: 1, 15.4 µM	–	5.71
[3], run: 1, 46.1 µM	–	0.123
[3], run: 2, 0.00078 µM	–	49.2
[3], run: 2, 0.00234 µM	–	44.2
[3], run: 2, 0.00702 µM	–	37.4
[3], run: 2, 0.0211 µM	–	41.8
[3], run: 2, 0.0632 µM	–	44.6
[3], run: 2, 0.19 µM	–	38
[3], run: 2, 0.569 µM	–	36.4
[3], run: 2, 1.71 µM	–	20.6
[3], run: 2, 5.12 µM	–	4.56
[3], run: 2, 15.4 µM	–	3.05
[3], run: 2, 46.1 µM	–	-0.46
[4], 0.00078 µM	–	103
[4], 0.00234 µM	–	105
[4], 0.00702 µM	–	104
[4], 0.0211 µM	–	102
[4], 0.0632 µM	–	103
[4], 0.19 µM	–	104
[4], 0.569 µM	–	109
[4], 1.71 µM	–	99.8
[4], 5.12 µM	–	90.5
[4], 15.4 µM	–	85.7
[4], 46.1 µM	–	0.964

Conditions	log AC50 of viability decrease
[2]	-4.63

c1cc(-c2cnn3cc(-c4ccc(OCCN5CCCCC5)cc4)cnc23)ccn1 [Dorsomorphin]
Conditions	log AC50 of viability decrease	viability [%]
[1], run: 1	-4.78	–
[1], run: 2	-5.58	–
[3], run: 1, 0.00078 µM	–	110
[3], run: 1, 0.00234 µM	–	97.8
[3], run: 1, 0.00702 µM	–	105
[3], run: 1, 0.0211 µM	–	111
[3], run: 1, 0.0632 µM	–	110
[3], run: 1, 0.19 µM	–	109
[3], run: 1, 0.569 µM	–	106
[3], run: 1, 1.71 µM	–	92.2
[3], run: 1, 5.12 µM	–	80.8
[3], run: 1, 15.4 µM	–	56.8
[3], run: 1, 46.1 µM	–	3.61
[3], run: 2, 0.00078 µM	–	89.5
[3], run: 2, 0.00234 µM	–	104
[3], run: 2, 0.00702 µM	–	99.5
[3], run: 2, 0.0211 µM	–	103
[3], run: 2, 0.0632 µM	–	100
[3], run: 2, 0.19 µM	–	95
[3], run: 2, 0.569 µM	–	99.7
[3], run: 2, 1.71 µM	–	88.4
[3], run: 2, 5.12 µM	–	2.11
[3], run: 2, 15.4 µM	–	45.8
[3], run: 2, 46.1 µM	–	5.16
[4], 0.00078 µM	–	107
[4], 0.00234 µM	–	109
[4], 0.00702 µM	–	99.6
[4], 0.0211 µM	–	103
[4], 0.0632 µM	–	103
[4], 0.19 µM	–	109
[4], 0.569 µM	–	116
[4], 1.71 µM	–	116
[4], 5.12 µM	–	110
[4], 15.4 µM	–	59.7
[4], 46.1 µM	–	1.36

Conditions	log AC50 of viability decrease
[2]	-4.78

CN1CCN(CC1)C2=CC3=C([NH]C(=N3)C/4=C(\N)C5=C(F)C=CC=C5NC4=O)C=C2 [Dovitinib]
Conditions	log AC50 of viability decrease	viability [%]
[1], run: 1	-5.93	–
[1], run: 2	-5.78	–
[3], run: 1, 0.00078 µM	–	110
[3], run: 1, 0.00234 µM	–	118
[3], run: 1, 0.00702 µM	–	119
[3], run: 1, 0.0211 µM	–	116
[3], run: 1, 0.0632 µM	–	101
[3], run: 1, 0.19 µM	–	110
[3], run: 1, 0.569 µM	–	79.5
[3], run: 1, 1.71 µM	–	43.6
[3], run: 1, 5.12 µM	–	7.04
[3], run: 1, 15.4 µM	–	4.74
[3], run: 1, 46.1 µM	–	-1.48
[3], run: 2, 0.00078 µM	–	111
[3], run: 2, 0.00234 µM	–	109
[3], run: 2, 0.00702 µM	–	103
[3], run: 2, 0.0211 µM	–	105
[3], run: 2, 0.0632 µM	–	104
[3], run: 2, 0.19 µM	–	109
[3], run: 2, 0.569 µM	–	84.5
[3], run: 2, 1.71 µM	–	56.4
[3], run: 2, 5.12 µM	–	13.2
[3], run: 2, 15.4 µM	–	5.56
[3], run: 2, 46.1 µM	–	-0.685
[4], 0.00078 µM	–	101
[4], 0.00234 µM	–	105
[4], 0.00702 µM	–	107
[4], 0.0211 µM	–	105
[4], 0.0632 µM	–	102
[4], 0.19 µM	–	103
[4], 0.569 µM	–	81.9
[4], 1.71 µM	–	70.1
[4], 5.12 µM	–	73.5
[4], 15.4 µM	–	68.6
[4], 46.1 µM	–	11

Conditions	log AC50 of viability decrease
[2]	-4.73

O=C1Nc2ccc(Cl)cc2[C@@](C#CC2CC2)(C(F)(F)F)O1 [Efavirenz]
Conditions	log AC50 of viability decrease	viability [%]
[1], run: 1	-4.42	–
[1], run: 2	-4.37	–
[3], run: 1, 0.00156 µM	–	115
[3], run: 1, 0.00468 µM	–	114
[3], run: 1, 0.014 µM	–	113
[3], run: 1, 0.0421 µM	–	117
[3], run: 1, 0.126 µM	–	107
[3], run: 1, 0.379 µM	–	113
[3], run: 1, 1.14 µM	–	105
[3], run: 1, 3.41 µM	–	114
[3], run: 1, 10.2 µM	–	97.2
[3], run: 1, 30.7 µM	–	72.6
[3], run: 1, 92.2 µM	–	3.34
[3], run: 2, 0.00156 µM	–	97.3
[3], run: 2, 0.00468 µM	–	93.1
[3], run: 2, 0.014 µM	–	103
[3], run: 2, 0.0421 µM	–	103
[3], run: 2, 0.126 µM	–	110
[3], run: 2, 0.379 µM	–	99.9
[3], run: 2, 1.14 µM	–	104
[3], run: 2, 3.41 µM	–	105
[3], run: 2, 10.2 µM	–	91.3
[3], run: 2, 30.7 µM	–	80.2
[3], run: 2, 92.2 µM	–	2.84
[4], 0.00156 µM	–	108
[4], 0.00468 µM	–	109
[4], 0.014 µM	–	106
[4], 0.0421 µM	–	109
[4], 0.126 µM	–	110
[4], 0.379 µM	–	112
[4], 1.14 µM	–	101
[4], 3.41 µM	–	105
[4], 10.2 µM	–	88.5
[4], 30.7 µM	–	90.6
[4], 92.2 µM	–	4.4

Conditions	log AC50 of viability decrease
[2]	-4.32
